This note sets out measurements from US20260184782A1 (TWIST BIOSCIENCE, published 2026).

Positions count from the first letter of the chain named.

T1: TIGIT (UniProt Q495A1 22-141, limits assumed)
T1 construct: construct not described; also called T cell immunoreceptor with Ig and ITIM domains
T1 sequence (looked up): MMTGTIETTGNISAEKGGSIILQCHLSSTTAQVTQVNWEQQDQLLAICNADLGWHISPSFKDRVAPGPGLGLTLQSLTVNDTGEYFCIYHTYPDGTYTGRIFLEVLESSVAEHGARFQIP

B1: TIGIT-30-15 VHH-Fc (Fc fusion)
chain: EVQLVESGGGLVQAGGSLRLSCAASGFTFSGNWMGWFRQAPGKEREWVSGISSGGGRTYYADSVKGRFTISADNAKNTVYLQMNSLKPEDTAVYYCAADVWYGSTWRNWGQGTQVTVSSGGGGS[in this place human IgG1 Fc with C220S (EU numbers)]
B2: TIGIT-30-22 VHH-Fc (Fc fusion)
chain: B1 chain with F29L, W47F, S49A, G50S, G54S, G56V, R57S, T58K, Y59H, Q111R
B3: TIGIT-30-31 VHH-Fc (Fc fusion)
chain: EVQLVESGGGLVQAGGSLRLSCAASGPTFSWTMMGWFRQAPGKEREFLAIITDGSKTLYADSVKGRFTISADNAKNTVYLQMNSLKPEDTAVYYCAAQFTLARHLVWGQGTQVTVSSGGGGS[in this place human IgG1 Fc with C220S (EU numbers)]
B4: TIGIT-30-46 VHH-Fc (Fc fusion)
chain: EVQLVESGGGLVQAGGSLRLSCAASGRTFSTYASMWWFRQAPGKEREFLAIITDGSKTLYADSVKGRFTISADNAKNTVYLQMNSLKPEDTAVYYCAGSWSYPGLTWGQGTQVTVSSGGGGS[in this place human IgG1 Fc with C220S (EU numbers)]
B5: TIGIT-30-20 VHH-Fc (Fc fusion)
chain: EVQLVESGGGLVQAGGSLRLSCAASGPTFSIYDMGWFRQAPGKEREFVAVINWSRGSTFYADSVKGRFTISADNAKNTVYLQMNSLKPEDTAVYYCAAGVWSSLRHTAANWGQGTQVTVSSGGGGS[in this place human IgG1 Fc with C220S (EU numbers)]
B6: TIGIT-30-25 VHH-Fc (Fc fusion)
chain: B5 chain with V50S, I51T, N52I, S57D, F59Y
B7: TIGIT-30-14 VHH-Fc (Fc fusion)
chain: B5 chain with V50A, N52T, S54N, R55S, S57R, F59N, V100A, H106K, N110S
B8: TIGIT-30-13 VHH-Fc (Fc fusion)
chain: EVQLVESGGGLVQAGGSLRLSCAASGRTFSNYFMGWFRQAPGKERESVAAINWDSARTYYADSVKGRFTISADNAKNTVYLQMNSLKPEDTAVYYCASAGRWGQGTQVTVSSGGGGS[in this place human IgG1 Fc with C220S (EU numbers)]
B9: TIGIT-30-53 VHH-Fc (Fc fusion)
chain: B8 chain with R27L, F33V
B10: TIGIT-30-52 VHH-Fc (Fc fusion)
chain: B8 chain with A50T, I51V, N52T, D54R, S55D, A56N, R57I
B11: TIGIT-30-26 VHH-Fc (Fc fusion)
chain: EVQLVESGGGLVQAGGSLRLSCAASGRTYYAMGWFRQAPGKEREFLAIITDGSKTLYADSVKGRFTISADNAKNTVYLQMNSLKPEDTAVYYCAAQFTLARHLVWGQGTQVTVSSGGGGS[in this place human IgG1 Fc with C220S (EU numbers)]
B12: TIGIT-30-33 VHH-Fc (Fc fusion)
chain: EVQLVESGGGLVQAGGSLRLSCAASGFTLENNMMGWFRQAPGKERELVSAIGWSGASTYYADSVKGRFTISADNAKNTVYLQMNSLKPEDTAVYYCAANLRGDNWGQGTQVTVSSGGGGS[in this place human IgG1 Fc with C220S (EU numbers)]
B13: TIGIT-30-19 VHH-Fc (Fc fusion)
chain: EVQLVESGGGLVQAGGSLRLSCAASGRTFSSYAMMGWFRQAPGKEREFLAIITDGSKTLYADSVKGRFTISADNAKNTVYLQMNSLKPEDTAVYYCAAQFTLARHLVWGQGTQVTVSSGGGGS[in this place human IgG1 Fc with C220S (EU numbers)]
B14: TIGIT-30-41 VHH-Fc (Fc fusion)
chain: B13 chain with T101I
B15: TIGIT-30-16 VHH-Fc (Fc fusion)
chain: EVQLVESGGGLVQAGGSLRLSCAASGFPFSEYPMGWFRQAPGKEREFVAVVNWNGDSTYYADSVKGRFTISADNAKNTVYLQMNSLKPEDTAVYYCANFNRDWGQGTQVTVSSGGGGS[in this place human IgG1 Fc with C220S (EU numbers)]
B16: TIGIT-30-23 VHH-Fc (Fc fusion)
chain: EVQLVESGGGLVQAGGSLRLSCAASGRAFRRYTMGWFRQAPGKEREFVAAIRWSGGTTFYADSVKGRFTISADNAKNTVYLQMNSLKPEDTAVYYCAAEWAAMKDWGQGTQVTVSSGGGGS[in this place human IgG1 Fc with C220S (EU numbers)]
B17: TIGIT-30-17 VHH-Fc (Fc fusion)
chain: EVQLVESGGGLVQAGGSLRLSCAASGSIFNIGMGWFRQAPGKEREWVSSIYSNGHTYYADSVKGRFTISADNAKNTVYLQMNSLKPEDTAVYYCANSNKPKFDWGQGTQVTVSSGGGGS[in this place human IgG1 Fc with C220S (EU numbers)]
B18: TIGIT-30-29 VHH-Fc (Fc fusion)
chain: EVQLVESGGGLVQAGGSLRLSCAASGSSLSFNAMGWFRQAPGKEREWVSSVYIFGGSTYYADSVKGRFTISADNAKNTVYLQMNSLKPEDTAVYYCANSNKPKFDWGQGTQVTVSSGGGGS[in this place human IgG1 Fc with C220S (EU numbers)]
B19: TIGIT-30-37 VHH-Fc (Fc fusion)
chain: B18 chain with S27R, S28T, L29F, F31S, N32K
B20: TIGIT-30-36 VHH-Fc (Fc fusion)
chain: B18 chain with S28I, L29A, F31I, N32H, M34I
B21: TIGIT-30-44 VHH-Fc (Fc fusion)
chain: EVQLVESGGGLVQAGGSLRLSCAASGVTLDLYAMGWFRQAPGKEREFVAGIWRSGGSTVYADSVKGRFTISADNAKNTVYLQMNSLKPEDTAVYYCATWTTTWGRNRDWGQGTQVTVSSGGGGS[in this place human IgG1 Fc with C220S (EU numbers)]
B22: TIGIT-30-45 VHH-Fc (Fc fusion)
chain: EVQLVESGGGLVQAGGSLRLSCAASGGTFSGGFMGWFRQAPGKEREWVASVLRGGYTWYADSVKGRFTISADNAKNTVYLQMNSLKPEDTAVYYCANGGSSYWGQGTQVTVSSGGGGS[in this place human IgG1 Fc with C220S (EU numbers)]
B23: TIGIT-30-28 VHH-Fc (Fc fusion)
chain: EVQLVESGGGLVQAGGSLRLSCAASGRTFESYRMGWFRQAPGKEREFVGGINWSGRTYYADSVKGRFTISADNAKNTVYLQMNSLKPEDTAVYYCAARRLYSGSYLDWGQGTQVTVSSGGGGS[in this place human IgG1 Fc with C220S (EU numbers)]

The first assay addresses T1, TIGIT. In words: Carterra SPR, VHH-Fc.
As to B1, binding was put at a Kd of 55 nM; the koff (usually the rate constant with which the complex falls apart) turned out to be 0.007 s⁻¹; the kon (in general, the rate constant with which the complex forms) was 130000 M⁻¹ s⁻¹.
As to B2, the Kd (as a rule, the equilibrium constant for the complex coming apart) was 811 nM; the koff stood at 0.037 s⁻¹; the kon turned out to be 45000 M⁻¹ s⁻¹.
As to B3, the Kd is 450 nM, the koff came to 450 s⁻¹ and the kon was 1e+09 M⁻¹ s⁻¹.
The molecule B4 yielded a dissociation constant (Kd) of 206 nM, a koff of 120 s⁻¹ and a kon of 5.8e+08 M⁻¹ s⁻¹.
Turning to B5, the Kd is 74 nM, the dissociation rate constant (koff) is 0.14 s⁻¹ and the kon is 1.9e+06 M⁻¹ s⁻¹.
As to B6, binding was characterised by a dissociation constant (Kd) of 117 nM, the koff was 0.004 s⁻¹ and the kon amounted to 34000 M⁻¹ s⁻¹.
Consider B7, for which the Kd came to 75 nM, the off-rate constant (koff) turned out to be 0.01 s⁻¹ and the kon is 140000 M⁻¹ s⁻¹.
For B8 the same measures were 106 nM, 82 s⁻¹ and 7.7e+08 M⁻¹ s⁻¹.
B9 displayed a Kd of 78 nM, an off-rate constant (koff) of 41 s⁻¹ and a kon of 5.3e+08 M⁻¹ s⁻¹.
For B10 the same measures were 49 nM, 0.27 s⁻¹ and 5.4e+06 M⁻¹ s⁻¹.
Molecule B11 had a Kd of 347 nM, a koff of 0.0099 s⁻¹ and a kon of 28000 M⁻¹ s⁻¹.
In turn, B12 yielded a Kd of 1550 nM, a dissociation rate constant (koff) of 0.18 s⁻¹ and a kon of 120000 M⁻¹ s⁻¹.
Molecule B13 yielded a Kd of 417 nM, a koff of 79 s⁻¹ and a kon of 1.9e+08 M⁻¹ s⁻¹.
The like results for B14 were, in that order, 309 nM, 74 s⁻¹ and 2.4e+08 M⁻¹ s⁻¹.
The molecule B15 had a Kd of 116 nM, a dissociation rate constant (koff) of 0.056 s⁻¹ and a kon of 480000 M⁻¹ s⁻¹.
As for B16, the koff is 0.29 s⁻¹ and the kon was 440 M⁻¹ s⁻¹.
On to B17, for which the Kd stood at 311 nM, the koff is 130 s⁻¹ and the kon is 4.3e+08 M⁻¹ s⁻¹.
The molecule B18 had a Kd of 148 nM, a koff of 0.073 s⁻¹ and a kon of 490000 M⁻¹ s⁻¹.
B19: binding was put at a Kd of 235 nM, the koff was 0.041 s⁻¹ and the kon stood at 170000 M⁻¹ s⁻¹.
Molecule B20 returned a Kd of 179 nM, a koff of 0.12 s⁻¹ and a kon of 660000 M⁻¹ s⁻¹.
The molecule B21 registered a Kd of 584 nM, a koff of 360 s⁻¹ and a kon of 6.1e+08 M⁻¹ s⁻¹.
For B22 the same measures were 736 nM, 1.5 s⁻¹ and 2.1e+06 M⁻¹ s⁻¹.
The molecule B23 displayed a dissociation constant Kd of 147 nM, a koff of 130 s⁻¹ and an association rate constant (kon) of 8.9e+08 M⁻¹ s⁻¹.

The target in another assay is T1, TIGIT. In words: ELISA. A general note: ELISA stands for enzyme-linked immunosorbent assay.
Consider B1, for which the ELISA was found to be 9.3.
As to B2, the ELISA turned out to be 7.6.
Take B3: the ELISA amounted to 3.8.
B4: the ELISA came out at 5.9.
With B5, the ELISA was found to be 4.6.
Molecule B6 yielded an ELISA of 9.3.
Still for that read-out and setting: the result for B7 reads 9.9.
Turning to B8, the ELISA turned out to be 3.2.
Regarding B9, the ELISA was 7.6.
In turn, B10 registered an ELISA of 4.2.
Still for that read-out and setting: the result for B11 reads 6.1; that for B12, 3.8.
Molecule B13 came in with an ELISA of 6.4.
As for B14, the ELISA is 8.7.
Still for that read-out and setting: the result for B15 reads 7.9.
As for B16, the ELISA is 4.1.
Molecule B17 yielded an ELISA of 6.7.
On the same count and under the same terms, the same measure for B18: 4.3; for B19: 4.2.
Molecule B20 gave an ELISA of 6.4.
Regarding B21, the ELISA was 3.5.
On to B22, for which the ELISA turned out to be 3.3.
For B23, the ELISA came to 7.6.
